Measured values as given in PubChem BioAssay AID485344 (National Center for Advancing Translational Sciences (NCATS), 2010).
Out of some 340,000 compounds screened, about 6,900 (2%) were called active. Cut-off read from the data, not from the text of the source: active = inhibition above about 30%; inactive = below that, where a call was filed. Only a part is listed here, and it is no random draw. The source gives no active or inactive call for entries shown without one.

Target: D(2) dopamine receptor (Homo sapiens) (UniProt P14416)
Test: HTS Assay for Allosteric Antagonists of the Human D2 Dopamine Receptor: Primary Screen for Antagonists; note: 0% is about no effect
Conditions: HEK293 TREx D2 cells, calcium flux, dopamine EC80; at 10 µM; stronger effect = higher value
In short: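 Compounds are added to dye-loaded, induced HEK293 T-REx cells coupled to calcium release via D2; after a 3 min kinetic read an EC80 dopamine stimulus is given and fluorescence is recorded for 3 more min.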

UniProt P14416, sequence (P14416 whole entry, looked up): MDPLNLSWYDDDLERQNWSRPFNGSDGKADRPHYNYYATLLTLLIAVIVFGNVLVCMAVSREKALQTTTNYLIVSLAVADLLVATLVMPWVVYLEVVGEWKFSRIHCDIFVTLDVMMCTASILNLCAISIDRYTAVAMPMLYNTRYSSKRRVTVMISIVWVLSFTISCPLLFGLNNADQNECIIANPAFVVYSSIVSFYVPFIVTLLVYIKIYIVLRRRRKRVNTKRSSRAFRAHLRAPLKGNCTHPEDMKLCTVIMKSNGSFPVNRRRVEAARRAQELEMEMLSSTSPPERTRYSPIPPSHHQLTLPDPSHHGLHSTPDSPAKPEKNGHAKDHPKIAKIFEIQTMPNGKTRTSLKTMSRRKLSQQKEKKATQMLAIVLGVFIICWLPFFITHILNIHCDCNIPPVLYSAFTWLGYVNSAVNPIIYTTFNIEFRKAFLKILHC

| Compound | inhibition |
| --- | --- |
| Cc1ccccc1-c1noc(-c2ccccc2OCC(=O)Nc2cccc([N+](=O)[O-])c2)n1 | 23.3% |
| CCN(c1ccccc1)S(=O)(=O)c1cnc[nH]1 | active: 34.5% |
| N#Cc1c(-c2ccccc2)cc(-c2ccccc2)nc1SCC(O)CS(=O)(=O)Cc1ccc(Cl)cc1 (stereo unspecified) | 0.445% |
| CCCNC(=O)c1ccc2c(c1)N=C(C)c1c(C)ccc(C)c1S2 | -10.3% |
| CCNc1ccc(S(=O)(=O)N2CCCCC2)cn1 | active: 33.1% |
| O=C(NCc1ccc(Cl)cc1)C(=O)NCC(c1cccs1)S(=O)(=O)c1ccc(Cl)cc1 (stereo unspecified) | -17.5% |
| CCOc1ccc(CCNC(=O)C2CCN(c3ncnc4c3nc3n4CCCCC3)CC2)cc1 | 7.42% |
| O=C(Nc1ccccc1F)c1nc(S(=O)(=O)Cc2ccccc2F)ncc1Cl | -25.9% |
| CCN(C(=O)c1noc2c1COc1ccc(C)cc1-2)c1cccc(C)c1 | 9.77% |
| Clc1cccc(-n2ncc3c(NC4CCCCC4)ncnc32)c1 | 15.3% |
| CCOc1ccc(-c2nnc(SCC(=O)NC3CCCC3)nc2-c2ccc(OCC)c(OC)c2)cc1OC | -23.2% |
| Cc1c(C(=O)Nc2ccc3c(c2)OCCO3)sc2nc(-c3ccccc3)cn12 | active: 72.8% |
| CC(C)(C)OC(=O)N1CCC(c2c(C(=O)NCCN3CCC(Cc4ccccc4)CC3)cnn2-c2cccc(Cl)c2)CC1 | -6.28% |
| Cc1cccc(N2CCN(C(=O)c3cc(S(=O)(=O)N4CCC(C)CC4)cn3C)CC2)c1C | 0.617% |
| COc1ccccc1CNC(=O)c1ccccc1NC(=O)c1nsc2ccccc12 | -21.5% |
| Cc1ccc(-n2nc3ccc(NC(=O)c4oc5ccccc5c4C)cc3n2)cc1 | 2.27% |
| CCOC(=O)c1[nH]c2ccccc2c1NC(=O)c1ccccc1OCC | -8.98% |
| Cc1ccccc1NC(=O)CCC(=O)N1CCSc2ccccc21 | -10.6% |
| CC(=O)N1c2ccc(S(=O)(=O)NCC3CCC(C(=O)NC(C)(C)C)CC3)cc2CC1C (stereo unspecified) | 4.42% |
| Cc1ccc(S(=O)(=O)N(CC(=O)Nc2ccc(C(C)C)cc2)Cc2ccccc2)cc1 | 1.95% |
| O=C(NCC(c1cccs1)S(=O)(=O)c1cccs1)c1ccccc1F (stereo unspecified) | -17.4% |
| Cc1cccc(C(=O)Nc2cccc(C(=O)N/N=C/c3ccc4c(c3)OCO4)c2)c1 | active: 37.3% |
| Clc1ccccc1N1CCN(c2ncnc3c2c(-c2ccccc2)cn3-c2ccccc2)CC1 | -13.9% |
| O=C(Cn1ncc2c3ccccc3n(Cc3ccc(Cl)cc3)c2c1=O)N1CCCCCC1 | -0.653% |

| Compound | inhibition |
| --- | --- |
| COc1cccc(-c2cn3c(n2)sc2cc(C(=O)NC4CCCCCC4)ccc23)c1 | 14.8% |
| CCCOC(=O)Nc1nnc(CCC)s1 | active: 44% |
| COc1ccc(Br)cc1CNC(=O)Cn1c(=O)c2cccn2c2ccc(F)cc21 | 0.51% |
| Cc1cc(C)c2oc(-c3cccc(NC(=O)c4ccc(Br)o4)c3)nc2c1 | 8.89% |
| Cc1ccccc1Cn1cc(CCC(=O)NC(C)c2ccccc2)c2ccccc21 (stereo unspecified) | 11.3% |
| CCOc1ccc(NC(=O)c2oc3ccccc3c2NC(=O)Cc2ccc(F)cc2)cc1 | 1.9% |
| CCC(C)c1ccc(OCC(=O)Nc2cccc(-c3nc4ncccc4o3)c2)cc1 (stereo unspecified) | -8.28% |
| COC(=O)c1cc(NC(=O)c2oc(=O)c3ccccc3c2-c2ccccc2)cc(C(=O)OC)c1 | 4.29% |
| Cc1ccc(NC(=O)CN2C(=O)CSc3ccc(S(=O)(=O)N4CCCC4)cc32)cc1F | -14.1% |
| CCc1ccc(NC(=O)c2cc(S(=O)(=O)NC3CCCC3)ccc2F)cc1 | 11.5% |
| COc1cc(OC)c(NC(=O)c2nnn(Cc3ccc(C)cc3)c2N)cc1Cl | 12.7% |
| Cc1ccc(CN2CCN(C(=O)c3ccco3)CC2)cc1 | active: 82.5% |
| COc1ccc(CCNC(=O)CN(c2ccccc2OC)S(=O)(=O)c2ccc(C)cc2)cc1 | -8.96% |
| COC(=O)c1c(NC(=O)c2cc(=O)c3ccc(C)c(C)c3o2)sc2c1CCCC2 | -3.93% |
| COCCCNC(=O)Cn1c(=O)n(Cc2ccc(C(=O)NCc3ccc(C)cc3)cc2)c(=O)c2ccccc21 | -8.23% |
| O=C(NCc1ccccc1Br)C1CCCN(C(=O)N2CCOc3ccccc32)C1 (stereo unspecified) | -15% |
| Cc1ccc(NC(=O)CSc2nc(C)c(Cc3ccccc3)c(=O)[nH]2)cc1 | 4.2% |
| COC(=O)c1ccc(NC(=O)CSc2nc3ccc(OC)cc3[nH]2)cc1 | 13.5% |
| COc1ccc(-c2cc3nc(-c4ccccc4)cc(C(F)(F)F)n3n2)cc1 | -0.387% |
| CCOc1ccc(NC(=O)CCC(=O)NNC(=O)COc2ccccc2C)cc1 | active: 36.3% |
| COc1ccc(CCNC(=O)Cc2c(C)c3c(cc(C)c4c(C)coc43)oc2=O)cc1 | 27.6% |
| CSc1ccc(CNC(=O)CCn2ccc3cc(S(=O)(=O)N4CCC(C)CC4)ccc32)cc1 | 4.41% |
| COc1ccc(N2CCN(C(=O)c3cnc(N4CCCC4)nc3C)CC2)cc1 | 0.945% |
| CC1=C(c2ccc(C)cc2)S(=O)(=O)N(Cc2ccc(C(=O)NCc3cccc(C)c3)cc2)C1=O | 0.178% |

| Compound | inhibition |
| --- | --- |
| COc1ccccc1CNS(=O)(=O)c1ccc2[nH]c3c(c2c1)CCCCC3 | 1.98% |
| FC(F)(F)c1cccc(N2CCN(Cc3cccnc3)CC2)c1 | active: 75.8% |
| CCC(Sc1nc2ccccc2c2nc(CCc3c(C)n[nH]c3C)nn12)C(=O)Nc1ccc(F)cc1 (stereo unspecified) | -12% |
| Cc1c(Cl)cccc1NC(=O)N1CCC(CN2CCCC2)CC1 | 10.4% |
| COc1cccc(-n2nnc3c(sc4nc(C)cc(C)c43)c2=O)c1 | -9.27% |
| COc1ccc2oc(=O)c(-c3nc(-c4cc(OC)c(OC)c(OC)c4)no3)cc2c1 | 8.57% |
| CCN(CC)CCNC(=O)c1ccc(N2CCCCC2)c(NS(=O)(=O)c2ccc(C)cc2)c1 | active: 56.2% |
| O=C(CNS(=O)(=O)c1cccs1)N1CCN(c2ccccc2Cl)CC1 | -0.0896% |
| Cc1ccc(C(=O)N/N=C\C=C\c2ccccc2[N+](=O)[O-])cn1 | active: 46.8% |
| O=C(Cn1cc(SCc2cccc(F)c2)c2ccccc21)N1CCCC1 | 13.5% |
| Cc1cc2oc(C(=O)Nc3sc4c(c3C(=O)NCc3ccco3)CCC4)cc(=O)c2cc1C | 2.5% |
| Cc1ccc2c(CNCc3cccc(Cl)c3)c(C(=O)O)n(Cc3ccc(F)cc3Cl)c2c1 | 11.1% |
| Cc1ccc(C(=O)Nc2ccc3nc(SCC(=O)N4CCc5ccccc54)sc3c2)cc1 | 5.54% |
| CCOC(=O)c1c(C)[nH]c(C)c1S(=O)(=O)N1CCC(C(=O)N2CCN(c3cccc(C)c3)C(C)C2)CC1 (stereo unspecified) | 11.2% |
| Cc1nc2ccccn2c(=O)c1CCN1CCC(C(=O)c2ccc(F)cc2)CC1 | active: 94.8% |
| CCCOc1ccc(C2c3c(oc4ccccc4c3=O)C(=O)N2c2ccc(C)cn2)cc1OCC (stereo unspecified) | 4.77% |
| O=C(Nc1ccc(C(F)(F)F)cc1)c1cc(S(=O)(=O)NC2CCCCCC2)ccc1F | 10.4% |
| CCOC(=O)c1ccc(CN(Cc2ccc(F)cc2)S(=O)(=O)c2ccc(F)cc2)cc1 | 17.3% |
| Cc1ccc(C)c(NC(=O)Nc2nnc(N(CC(C)C)CC(C)C)s2)c1 | 8.63% |
| Cc1ccc(CCNC(=O)c2ccc3c(=O)n(-c4ccc(C)cc4)c(=O)[nH]c3c2)cc1 | 0.293% |
| Cc1ccccc1S(=O)Cc1ccc(C(=O)NC2CCCCCC2)o1 (stereo unspecified) | -9.25% |
| Cc1ccc(NC(=O)c2nc(S(C)(=O)=O)ncc2N(Cc2ccco2)Cc2ccccc2F)c(C)c1 | -22.8% |
| CCN(Cc1ccccc1)C(=O)CCS(=O)(=O)c1cc2c(cc1Cl)NC(=O)CO2 | 19.9% |
| NCCC(=O)N1c2ccccc2Sc2ccc(Cl)cc21 | active: 48.1% |

| Compound | inhibition |
| --- | --- |
| Cc1nc2scc(C)n2c(=O)c1S(=O)(=O)Nc1cccc(O)c1 | -17.5% |
| CCOc1ccc(OCC)c(NC(=O)c2nnn(Cc3cc(Br)ccc3OC)c2N)c1 | -8.54% |
| COCCCNC(=O)c1cn(CC(C)C)c(=O)c2c1c1ccccc1n2C | 10.7% |
| COCCn1c(CNC(=O)c2cccc(N(C)C)c2)nc2cccnc21 | 5.62% |
| CC(=O)c1ccc(N2CCN(C(=O)C3CCN(S(=O)(=O)c4ccc(Br)s4)CC3)CC2)cc1 | -7.38% |
| COc1ccccc1N1CCN(C2C(=O)c3ccccc3N2C(C)=O)CC1 (stereo unspecified) | -2.21% |
| CCOc1ccc(S(=O)(=O)NCC(c2ccc(N(C)C)cc2)N2CCCC2)cc1 (stereo unspecified) | 10.2% |
| Cc1ccc(-c2cn3c(n2)sc2cc(C(=O)NCCC4=CCCCC4)ccc23)c(C)c1 | 13% |
| Cc1ccc(N2C(=O)C(CC(=O)Nc3ccc(F)cc3)N(CCC3=CCCCC3)C2=O)cc1 (stereo unspecified) | -13.7% |
| CCOc1ccc(-c2nnc(SCC(=O)Nc3ccccc3C(F)(F)F)o2)cc1 | 2.39% |
| CCCCN1CC(c2nc3ccccc3n2CCCCOc2ccccc2C)CC1=O (stereo unspecified) | -3.26% |
| Cc1c(NC(=O)CSCc2ccc(Br)cc2)c(=O)n(-c2ccccc2)n1C | active: 42.4% |
| CC(=O)OC1=CN(Cc2ccccc2)S(=O)(=O)c2ccccc21 | -2.81% |
| COc1ccc(OC)c(S(=O)(=O)NCCc2sc(-c3cccnc3)nc2C)c1 | 9.89% |
| O=C(c1ccc2c(c1)N(Cc1ccc(Cl)cc1)C(=O)c1ccccc1S2(=O)=O)N1CCCCCC1 | 13.3% |
| CCCN(Cc1cccs1)C(=O)Nc1cc(C)ccc1OC | -9.67% |
| Cc1cccc(C)c1Nc1c(-c2ccccc2Cl)nc2cnccn12 | 5.26% |
| COc1ccccc1N1CCN(c2nc3ccc(C(=O)c4ccccc4)cc3n3c(C)nnc23)CC1 | 2.01% |
| Cc1ccc(-c2onc(C)c2C)cc1S(=O)(=O)NCc1cccs1 | 7.15% |
| COc1ccc(OC)c(CNC(=O)C2CCN(S(=O)(=O)N3CCCCC3)CC2)c1 | 12.5% |
| CCc1nn(CC(=O)Nc2ccc(C)c(F)c2)c(=O)c2cc3cc(C)ccc3n12 | -0.469% |
| COc1cccc(NC(=O)c2c(-c3ccc(C)cc3)nnc3ccccc23)c1 | 10.4% |
| Cc1ccc(C)c(Cn2c(=O)n(-c3ccc(Cl)cc3)c(=O)c3c4c(sc32)CCC4)c1 | -1.52% |
| Cc1ccc(CN2CCN(Cc3ccc(C)s3)CC2CCO)cc1 (stereo unspecified) | active: 69.3% |
